From PubChem BioAssay AID887 (National Center for Advancing Translational Sciences (NCATS), 2007)
Hit rate of the full screen: of about 74,000 compounds, about 1,100 (1.5%) were called active. This list was built around the results that the source calls inconclusive (neither active nor inactive); the mix of calls is not that of the screen. Calls follow the shape of the dose curve; as a rule, active = well fitted inhibition curve with a large enough effect; inconclusive = small, poorly fitted or top-dose-only effect; inactive = no such curve, though single readings can be large or run the other way. No potency is given beside an inconclusive call; the fits are too rough.

target: Polyunsaturated fatty acid lipoxygenase ALOX15 (Homo sapiens) (UniProt P16050); experiment: qHTS Assay for Inhibitors of 15-hLO (15-human lipoxygenase); conditions: purified 15hLO-1, xylenol orange hydroperoxide absorbance; activity change, negative = inhibition: at 57.1 µM (top of the series) unless noted; also: nearly all actives have a fitted effect of over 55% in size
Procedure, shortened: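 Purified human 15hLO-1 (40 nM) in 25 mM Hepes pH 7.5, 0.01% Triton X-100, preincubated 15 min RT with compound, then 50 uM arachidonic acid for 6 min. Hydroperoxide read by ferrous/xylenol orange, 30 min; 573/405 nm absorbance ratio gave progress.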
% is scaled to controls: 0 for no effect and ±100 for the full control effect; potency is read from the fitted curve at half-maximal effect; tags tell the direction and shape of the fitted curve.

Sequence of UniProt P16050 (P16050 whole entry, looked up): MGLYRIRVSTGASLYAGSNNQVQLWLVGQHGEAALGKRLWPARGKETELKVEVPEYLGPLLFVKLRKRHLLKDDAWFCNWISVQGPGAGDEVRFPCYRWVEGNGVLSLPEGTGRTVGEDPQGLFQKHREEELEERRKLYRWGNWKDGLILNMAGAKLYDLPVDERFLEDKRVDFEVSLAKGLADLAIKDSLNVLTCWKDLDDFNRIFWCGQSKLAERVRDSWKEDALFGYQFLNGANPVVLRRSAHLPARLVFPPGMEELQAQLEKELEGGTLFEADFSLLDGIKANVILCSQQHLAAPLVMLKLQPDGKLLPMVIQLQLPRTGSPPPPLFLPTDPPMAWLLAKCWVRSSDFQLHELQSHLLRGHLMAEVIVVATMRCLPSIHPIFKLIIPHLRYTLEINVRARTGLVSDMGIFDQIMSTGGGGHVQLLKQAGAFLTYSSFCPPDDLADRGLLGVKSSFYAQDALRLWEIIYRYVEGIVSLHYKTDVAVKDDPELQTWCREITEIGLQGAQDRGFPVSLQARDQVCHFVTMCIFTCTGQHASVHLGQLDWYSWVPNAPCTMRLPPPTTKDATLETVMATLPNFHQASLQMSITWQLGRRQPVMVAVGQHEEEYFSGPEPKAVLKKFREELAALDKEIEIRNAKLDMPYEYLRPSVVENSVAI

SMILES	Potency	activity change, negative = inhibition
COc1ccccc1C(=O)N(Cc1nc(-c2ccc(Cl)cc2)no1)C(C)C	inconclusive [inhibitor, single point]	–
CCN(CC)S(=O)(=O)c1ccc2c(c1)nc(CCC(=O)OCC(=O)N1CCc3ccccc31)n2C	inconclusive [inhibitor, single point]	–
O=C(CSc1nnnn1-c1cccc2c1CCCC2)N1CCOCC1	–	inactive: 3.1%
COC(=O)Cc1c(C)nc2nc(-c3ccccc3)[nH]n2c1=O	–	inactive: -17.4%
Cn1cnnc1SCC(=O)Nc1sc2c(c1C(N)=O)CCC2	inconclusive [inhibitor, partial curve]	–
CC(=O)Nc1nc(=S)n(-c2ccccc2)[nH]1	inconclusive [inhibitor, partial curve]	–
COCCn1c(-c2ccco2)nc2nc3ccccc3nc21	–	inactive: -14.6%
COCCNC(=O)c1c(N)sc2c1CCCC2	inconclusive [inhibitor, partial curve]	–
COC(=O)C1C2CC3c4[nH]c5cc(OC)ccc5c4CCN3CC2CC(OC(=O)c2cc(OC)c(OC)c(OC)c2)C1OC (stereo not given)	–	inactive: -15.3% [at 25.6 µM]
CC/C=C\CC[C@H](OC(=O)c1ccc(Br)cc1)C1=CCCCC1=O	–	inactive: -4.77% [at 11.4 µM]
CCOC(=O)c1c(NC(=O)c2ccn(CC)n2)sc2c1CCCC2	inconclusive [inhibitor, partial curve]	–
N#C/C(=C\c1cccs1)Sc1nc2ccccc2s1	inconclusive [inhibitor, partial curve]	–
CS(=O)(=O)N1CCCC(C(=O)NCc2ccc(F)cc2Cl)C1 (stereo not given)	–	inactive: -3.57%
O=C(O)C1(C(=O)O)CCN(S(=O)(=O)c2ccccc2)CC1	–	inactive: 2.82% [at 11.4 µM]
CC(=O)N1CCN(c2ccc(NC(=O)c3ccc(C(C)(C)C)cc3)cc2)CC1	–	inactive: -14.5%
Cc1c(C)n(CC(O)CN2CCCCCC2)c2ccccc12 (stereo not given)	inconclusive [inhibitor, partial curve]	–
O=C(Nc1ccccc1-c1nnn(CC(=O)N2CCCc3ccccc32)n1)c1ccco1	inconclusive [inhibitor, full curve]	–
Cc1ccccc1Cn1nc(C)c(NC(=O)c2cc3nc(-c4ccco4)cc(C(F)(F)F)n3n2)c1C	inconclusive [inhibitor, single point]	–
COc1ccc(Oc2ncc3nc(C)c(=O)n(Cc4cccs4)c3n2)cc1	–	inactive: 1.66%
COC(=O)c1sccc1NC(=O)c1c(C)noc1C	inconclusive [inhibitor, partial curve]	–
CCOc1ccccc1CNC(=O)c1cc2occc2n1C	active: 20 µM	–
CCn1c(N)c(C(=O)NCC2CCCO2)sc1=S (stereo not given)	active: 10 µM	–
O=C(Nc1ccc(-c2nc3ncccc3o2)cc1)c1ccc(Br)o1	inconclusive [inhibitor, single point]	–

SMILES	Potency	activity change, negative = inhibition
CC1=C(SCCC#N)S/C(=C2\SC(C)=C(SCCC#N)S2)S1	active: 12.6 µM	–
N#CC1=C(N)SC(N)=C(C#N)C1c1ccoc1	inconclusive [inhibitor, partial curve]	–
COc1ccccc1-c1cc(C(F)(F)F)nc(NCc2ccco2)n1	inconclusive [inhibitor, partial curve]	–
N#Cc1c(N)nc(SCc2ccccc2)c(C#N)c1-c1ccco1	inconclusive [inhibitor, partial curve]	–
Cc1ccc(CNS(=O)(=O)c2ccc(C(C)(C)C)cc2)n1C	inconclusive [inhibitor, single point]	–
CC(=O)N1c2ccccc2C(=O)C1N1CCCCC1 (stereo not given)	inconclusive [inhibitor, single point]	–
CC1CN(S(=O)(=O)c2ccc(C(=O)Nc3sc4c(c3C(N)=O)CCN(C)C4)cc2)CC(C)O1 (stereo not given)	inconclusive [inhibitor, full curve, poor fit]	–
Cc1oc(-c2ccc(F)cc2)cc1-c1nn2c(-c3ccoc3C)nnc2s1	inconclusive [inhibitor, single point]	–
Cc1cc(C)nc(Nc2ccc(N3CCCC3)cc2)n1	inconclusive [inhibitor, single point]	–
CCCn1c(=N)n(CC(O)COc2cccc(C)c2)c2ccccc21 (stereo not given)	–	inactive: -2.54%
CCc1ccccc1N1CCN(S(=O)(=O)c2ccc(F)c(C)c2)CC1	–	inactive: -8.76%
Cc1cccc(N(CC(N)=O)C2SC(=O)N(c3ccccc3)C2=O)c1 (stereo not given)	inconclusive [inhibitor, partial curve, poor fit]	–
CC1(C)NC(=O)N(CCOc2ccc3c(c2)CCC3)C1=O	inconclusive [inhibitor, single point]	–
CCOc1ccc(C(=O)Nc2ccc(N3CCN(C)CC3)cc2)cc1Br	inconclusive [inhibitor, single point]	–
CCCCn1c(=O)n(CC(=O)Nc2ccc(C)c(Cl)c2)c(=O)c2c1ncn2Cc1ccco1	inconclusive [inhibitor, single point]	–
N#CC1=C(N)SC(N)=C(C#N)C1c1ccnc2ccccc12	active: 3.98 µM	–
Cc1[nH]c(=O)[nH]c1CN1CCCCC1	inconclusive [inhibitor, single point]	–
O=C(CN(Cc1ccc(F)cc1)S(=O)(=O)c1ccccc1)N1CCCCC1	inconclusive [inhibitor, partial curve, poor fit]	–
O=C(O)[C@@H]1[C@@H]2C[C@H]3c4[nH]c5ccccc5c4CCN3C[C@@H]2CC[C@@H]1O	inconclusive [inhibitor, full curve, poor fit]	–
Cn1c(NCc2ccco2)nc2c1c(=O)n(Cc1ccc(Cl)cc1)c(=O)n2C	inconclusive [inhibitor, single point]	–
Cc1nnc(SCCCn2c(N3CCN(c4ccccc4)CC3)nc3c2c(=O)[nH]c(=O)n3C)s1	inconclusive [inhibitor, single point]	–
COc1cccc(Oc2cn[nH]c2-c2ccc(O)cc2O)c1	inconclusive [inhibitor, single point]	–
